Laboratory results as given in ChEMBL document CHEMBL4888484, “Replenishing the malaria drug discovery pipeline: Screening and hit evaluation of the MMV Hit Generation Library 1 (HGL1) against asexual blood stage Plasmodium falciparum ,using a nano luciferase reporter read-out” (2022).
The whole screen tested about 150,000 compounds, of which about 540 (0.36%) showed an effect of 50% or more. Some of the results follow.

Tested on: Plasmodium falciparum
Assay: Primary screen in NF54 nanoGlo assay, in single point, at 2uM, 72h; a lower Z score goes with more inhibition
Format: functional, Erythrocyte
Conditions: timepoint 72 hour

SMILES | % Inhibition | Z score
CC(C)(C)OC(=O)N1CCC12CCN(C(=O)c1cccnc1)CC2 | -13% | 1.58
CN(CC1CCCCC1)C(=O)[C@@H]1CCCO1 | -6% | 0.76
CCCCS(=O)(=O)NCCc1ccc(C(=O)O)cc1 | -6% | 0.85
Nc1c(F)cc(Cl)cc1C(=O)N1CCC(OC2CCCCC2)CC1 | 0% | 0.05
Cc1ccsc1CN1CCn2c(nnc2[C@@H]2C[C@H](O)CN2C(C)C)C1 | -2% | 0.39
Cn1nccc1C1CC(NS(=O)(=O)CC2CCCC2)CCO1 (stereo not given) | -9% | 1.64
Cc1cccc(C(=O)NCC[C@H]2CCCNC2)c1F | -3% | 0.49
O=C(NC1CCC(CC2CCC(NC(=O)c3sc4cc(F)ccc4c3Cl)CC2)CC1)c1sc2cc(F)ccc2c1Cl (stereo not given) | -2% | 0.3
COc1cccc2c(C)cc(=O)n(CC(=O)N3CCc4ccccc4C3)c12 | -5% | 0.59
O=C(CCc1cn[nH]c1)N1CCC(c2cscn2)CC1 | -4% | 0.83
Cc1cc([C@H](C)NCc2ccc3c(n2)CCCC3)c(C)o1 | 2% | -0.31
O=C(NCc1c(F)c(F)cc(F)c1F)NC1CC=CC1 | -8% | 0.94
Cc1cccc(Cn2ncc(C)c2NC(=O)[C@@H]2CCCCCN2C)c1 | -13% | 1.37
C[C@H]1CCCCN1C(=O)CCn1ccccc1=O | 13% | -1.32
Cn1cccc1C(=O)N1CC[C@H](c2nc(-c3ccccc3)no2)C1 | -6% | 0.92
Cc1nc(-c2ccc3[nH]c(=O)[nH]c3c2)cs1 | 32% | -1.01
COC(=O)c1nc2nc(C)cc(C)n2c1F | -1% | 0.15
CNC(=O)c1cccc(C(=O)Nc2ccc(F)cc2NC2CC2)c1 | -5% | 0.79
CC(C)C[C@@H](CO)NC(=O)NC1CCC(F)(F)CC1 | -14% | 2.57
NC(=O)N1CCC[C@H]1C(=O)N1CCc2ccccc2C1 | -4% | 0.81
CN(Cc1cccc(F)c1)C(=O)c1ccc(S(=O)(=O)N2CCOCC2)cc1 | -4% | 0.73
Cc1cc(NC(=O)CN2CCCC[C@@H]2Cn2cncn2)on1 | -7% | 1.04

SMILES | % Inhibition | Z score
Cc1cc(C)cc(Nc2nc3ccncc3n(Cc3ccccc3)c2=O)c1 | 3% | -0.28
CN(Cc1cccc(NS(=O)(=O)c2ccccc2)c1)C[C@]1(O)CCCOC1 | -3% | 0.52
CCN(C)c1cccc(NC(=O)N(C)C[C@H](C)C(=O)NC)c1 | -15% | 1.54
CCc1ccc(CNC(=O)[C@@H]2CCCCc3nn(Cc4cccc(F)c4)c(=O)n32)cc1 | -4% | 0.37
NC(=O)CCn1ccc(NCc2cccc3cn[nH]c23)n1 | -6% | 0.89
Cc1ccc(Cl)cc1N1CCN(C(=O)c2cc(-c3cccc4ccccc34)[nH]n2)CC1 | -12% | 2.38
N[C@@H]1CCN(C(=O)c2ccc(Oc3ccc(F)c(F)c3)cc2)C1 | -9% | 0.91
Cc1noc(-c2cccc(C(F)(F)F)c2)c1C(=O)NCCCN(C)c1ccccc1 | -6% | 0.78
CC(C)c1cc(C(=O)Nc2ccc(Cl)cc2)nc2ccnn12 | 10% | -1.62
COc1ccc(CCc2n[nH]c(NC(=O)CCc3c[nH]c4ccccc34)n2)cc1OC | 36% | -5.88
CO[C@H]1CCCOC12CCN(C(=O)CCc1scnc1C)CC2 | -8% | 1.44
CCc1nc(C)c(C(=O)N(C)Cc2cc[nH]n2)s1 | 5% | -0.85
COCc1nn2cc(C(=O)c3ccc(OC)c(OC)c3)nnc2c1-c1ccccc1 | 8% | -1.29
O=C(CCn1cnnn1)N1CCC2(CC1)CC(=O)N(Cc1ccccc1)C2 | -4% | 0.6
Cc1csc(C(C)(C)NC(=O)Nc2nnc3ccccn23)n1 | -4% | 0.58
C/C(=N\c1ccc(C2CCCC2)cc1)Nc1ccc(C2CCCC2)cc1 | -3% | 0.53
C[C@@H](c1ccncn1)N(C)Cc1ccc(C2CCCC2)s1 | -10% | 1.12
O=C1C[C@H](Cc2ccc(F)cc2)C(=O)N1CCCn1ccnc1 | -11% | 1.7
CC(=O)c1ccc(N2CC[S+]([O-])CC2)nc1 | 32% | -1.13
CC(C)C[C@H](CNC(=O)[C@H]1CCCO1)CC(=O)OC1CCOC1 (stereo not given in full) | -8% | 1.11
CNC(=O)[C@@H]1CN(S(=O)(=O)c2ccc(Cl)s2)C[C@H]1c1nc(C)n[nH]1 | -2% | 0.24
COc1cccc(-c2nccn2[C@@H](C)c2csc(C)n2)c1OC | -4% | 0.8

SMILES | % Inhibition | Z score
C=CCOC[C@@H](O)CN(Cc1c(-c2ccccc2)nn(C)c1Oc1ccc(Cl)cc1)C1CC1 | -3% | 0.35
Cc1cccc(C)c1NC(=O)C1CCN(S(=O)(=O)c2ccc3c(c2)nc(C)n3C2CCCC2)CC1 | -13% | 2.36
Cc1ccc(Cl)c(S(=O)(=O)Nc2nonc2C)c1 | -5% | 1.05
Cc1nc(-c2cc(S(=O)(=O)NCc3ccco3)cn2C)sc1C(=O)N1CCCC1 | -1% | 0.09
Cc1cccc(OC2CCN(c3nc(CO)cs3)CC2)c1 | -8% | 0.95
CC(=O)N[C@H]1CCN(Cc2cn(-c3ccccc3F)nc2-c2cc(C)sc2C)C1 | 6% | -0.75
CCn1ccc2cc(S(=O)(=O)N3CCC[C@H](C(=O)NCCCOC(C)C)C3)ccc21 | -8% | 1.28
Cc1cc(C(=O)N2CCCCC2)c2c(=O)n(CC(=O)Nc3ccc(C(C)C)cc3)c(=O)n(C)c2n1 | -2% | 0.35
O=C(CNC(=O)NCC1CCCC1)NCCCn1ccnc1 | -8% | 1.43
Cc1ccc(C(=O)OC[C@H]2COC(=O)N2)c(F)c1 | -11% | 1.72
CCOc1cc(NCc2nc(C)c(C)o2)ncn1 | -5% | 0.91
CCOCC1CCCN(C(=O)NC(C)c2nccs2)C1 (stereo not given) | -4% | 0.47
CCCN(CCC)C(=O)CCC(=O)OCCNc1ncccn1 | 1% | -0.18
C=CCNC(=O)NCC1C(C)OC(C)(C)N1C(=O)OC(C)(C)C (stereo not given) | -10% | 0.97
O=C(CN1CCOCC1)Nc1ncc(Cc2cc(Cl)cc(Cl)c2)s1 | -18% | 3.26
O=C(Nc1nc2ccccc2s1)N1CCC[C@H]1c1ccncc1 | 15% | -1.91
CC1=C[C@@H](CN2CCN(c3ncccn3)CC2)[C@H](C(C)C)C[C@H]1Cc1nnc(C)o1 | -9% | 1.18
O=C(NC1CCC(N2C(=O)CCC2=O)CC1)c1ccc(Cl)cc1O (stereo not given) | 29% | -3.28
COc1ncccc1CCNC(=O)N1CCO[C@](C)(C(F)F)C1 | -3% | 0.6
COc1cccc(-c2ccc(N3CCC(NCc4nnc(C)o4)CC3)cc2)c1 | 2% | -0.3
CC(C)[C@@H]1CN(CCN2CCNC2=O)c2ccccc21 | -7% | 1.27
Cc1ccc2c(c1)c(=O)n(-c1cccc(Cl)c1)c(=O)n2CC(=O)NCc1cccnc1 | -3% | 0.49

SMILES | % Inhibition | Z score
CCCCNCCCOc1cc(C)cc(C(C)C)c1 | -10% | 1.3
CC(C)c1nccn1Cc1nnc(-c2cccs2)o1 | -7% | 1.33
CC(=O)NCCCC(=O)N1CCC2(CCCCCC2)C1 | -11% | 1.21
N=C(N)Nc1ccc(/C=C2\C=Cc3ccccc32)cc1 | -3% | 0.48
CCOc1nccnc1N1C[C@@H](CN)[C@H](c2ccccc2)C1 | 4% | -0.75
CC(C)CCN(CCC#N)c1ncnc2c1ncn2CC(CO)C1CCOC1 (stereo not given) | 1% | -0.2
Cc1ccc(Cl)cc1NC(=O)Cn1cnc2c(C(N)=O)nsc2c1=O | -9% | 1.24
Cc1ccc(-n2nc(C(C)(C)C)c(NC(=O)NCc3ccccc3)c2N)c(C)c1 | -1% | 0.2
Cc1ccc(-c2ccc3nnc(CCC(=O)NC4CCC(C)CC4)n3n2)cc1C (stereo not given) | -9% | 1.19
O=C(c1c[nH]c2ccccc12)C(O)C(c1ccc(Cl)cc1)N1CCN(CCO)CC1 (stereo not given) | -2% | 0.4
Cc1nn(C)cc1C(=O)CC(=O)c1cn(C)nc1C | -3% | 0.43
CC[C@H]1C(=O)NCCN1C(=O)c1cc(-c2ccc(F)cc2)c(C)s1 | 21% | -2.4
O=C(c1ccc(F)c(Cl)c1)N1C[C@@H]2CC[C@@H](C2)C1 | -3% | 0.6
Cc1nc(NC(=O)c2coc(C3CC3)n2)n(-c2ccc(F)cc2C)n1 | -6% | 0.95
CCn1nc(C)c(CNCc2c(C(=O)N3CCCCCC3)nc3cc(C)ccn23)c1C | -30% | 2.64
CCN(CCC(F)(F)F)C(=O)[C@H]1CC(=O)N(CC)[C@@H]1c1nccn1CC | 4% | -0.66
O=C(NCc1cccc(Cl)c1)c1coc(COc2ccc3c(c2)OCO3)n1 | -13% | 1.59
c1ccc(COCCc2noc([C@@H]3CCCCN3)n2)cc1 | -1% | 0.16
O=C(NCc1cccnc1-c1ccncc1)[C@@H]1CCCO1 | -5% | 0.96
